Measurements reported in the antibiotic and cytotoxicity screens of Wong et al. (2023).
The other results are listed elsewhere or left out.

Assays:
[1] = system: HSkMC (human skeletal muscle cells); assay: cytotoxicity call (relative viability < 0.9); settings: 10 µM
[2] = system: HepG2; assay: cytotoxicity call (relative viability < 0.9); settings: 10 µM
[3] = system: S. aureus RN4220; assay: growth inhibition call (relative growth <= 0.2); settings: 50 µM

Structure (SMILES)	cytotoxicity call [1]	cytotoxicity call [2]	growth inhibition call [3]
C[C@H]1CN([C@@H](C)CO)S(=O)(=O)c2ccc(Br)cc2O[C@H]1CN(C)C(=O)c1cnccn1	inactive	inactive	inactive
C[C@H](CO)N1C[C@H](C)[C@H](CN(C)S(=O)(=O)c2ccccc2)Oc2ncc(-c3cccc(F)c3)cc2C1=O	inactive	inactive	inactive
C[C@@H]1CN([C@@H](C)CO)C(=O)c2cc(C#CCN(C)C)cnc2O[C@@H]1CN(C)C(=O)c1ccc2c(c1)OCO2	inactive	inactive	inactive
Br.CN(C)CCCC1(c2ccc(F)cc2)OCc2cc(C#N)ccc21 (stereo not drawn)	inactive	inactive	inactive
C[C@H](CO)N1C[C@H](C)[C@H](CN(C)CC2CC2)Oc2ccc(NC(=O)Cn3cnnn3)cc2C1=O	inactive	inactive	inactive
C[C@@H]1CCCCO[C@@H](CN(C)Cc2ccc(C(F)(F)F)cc2)[C@@H](C)CN([C@H](C)CO)C(=O)c2cc(NC(=O)Nc3ccc4c(c3)OCO4)ccc2O1	inactive	inactive	inactive
COc1c(N2CC3CCCNC3C2)c(F)cc2c(=O)c(C(=O)O)cn(C3CC3)c12.Cl (stereo not drawn)	inactive	inactive	active
COc1ccc(CN(C)C[C@@H]2Oc3ccc(NC(=O)Cn4cnnn4)cc3CC(=O)N([C@@H](C)CO)C[C@@H]2C)cc1	inactive	inactive	inactive
CCCCCCOC(=O)/N=C(/N)c1ccc(NCc2nc3cc(C(=O)N(CCC(=O)OCC)c4ccccn4)ccc3n2C)cc1	active	inactive	inactive
C[C@@H]1CN([C@@H](C)CO)C(=O)c2cc(NC(=O)C3CCCCC3)ccc2O[C@@H](C)CCCCO[C@@H]1CN(C)C(=O)Nc1ccc(C(F)(F)F)cc1	inactive	inactive	inactive
NC(=O)c1cccc(C(N)=O)c1	inactive	inactive	inactive
